The record followed here is article PMC4336329 (PLoS ONE, 2015).

Molecules are shown by their SMILES. Among all 310,000 compounds or so, about 14,000 (4.5%) showed an effect of 50% or more. Effects have a minus sign here. The list shows a part of the results.
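Note: peak tail current of the secondary pulse compared with the same well before compound.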

Chain of human ether-à-go-go-related gene (hERG) potassium channel (Q12809 whole entry, looked up): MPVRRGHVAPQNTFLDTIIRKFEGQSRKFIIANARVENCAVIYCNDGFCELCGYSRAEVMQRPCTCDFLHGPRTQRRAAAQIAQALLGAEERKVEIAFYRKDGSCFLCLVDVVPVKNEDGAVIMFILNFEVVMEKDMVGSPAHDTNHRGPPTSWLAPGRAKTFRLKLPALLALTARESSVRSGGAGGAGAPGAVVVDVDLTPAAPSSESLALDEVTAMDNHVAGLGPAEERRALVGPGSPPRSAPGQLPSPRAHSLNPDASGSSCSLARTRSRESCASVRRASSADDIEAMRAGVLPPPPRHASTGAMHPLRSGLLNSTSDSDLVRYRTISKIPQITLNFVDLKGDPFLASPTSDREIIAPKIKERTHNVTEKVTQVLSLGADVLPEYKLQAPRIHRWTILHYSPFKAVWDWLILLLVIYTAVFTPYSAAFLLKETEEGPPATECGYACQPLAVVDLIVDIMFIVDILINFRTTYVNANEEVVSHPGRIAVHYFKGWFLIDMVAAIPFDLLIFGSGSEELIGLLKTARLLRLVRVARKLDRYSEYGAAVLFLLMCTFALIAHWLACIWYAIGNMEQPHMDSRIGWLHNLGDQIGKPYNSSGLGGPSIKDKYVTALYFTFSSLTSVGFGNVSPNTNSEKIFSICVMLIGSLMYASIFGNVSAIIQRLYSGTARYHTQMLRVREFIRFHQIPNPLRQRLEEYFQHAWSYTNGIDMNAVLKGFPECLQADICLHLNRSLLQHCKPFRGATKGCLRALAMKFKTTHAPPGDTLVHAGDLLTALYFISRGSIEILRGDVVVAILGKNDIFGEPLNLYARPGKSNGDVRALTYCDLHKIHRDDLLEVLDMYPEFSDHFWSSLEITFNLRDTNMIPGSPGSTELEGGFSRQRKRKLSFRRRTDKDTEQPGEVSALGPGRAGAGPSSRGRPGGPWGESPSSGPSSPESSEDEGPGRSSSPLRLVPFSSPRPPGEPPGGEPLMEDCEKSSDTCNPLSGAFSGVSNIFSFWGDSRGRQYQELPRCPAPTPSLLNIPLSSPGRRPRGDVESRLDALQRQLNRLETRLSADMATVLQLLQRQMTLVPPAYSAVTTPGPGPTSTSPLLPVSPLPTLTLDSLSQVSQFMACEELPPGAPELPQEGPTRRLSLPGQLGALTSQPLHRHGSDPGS

The assay concerns the target human ether-à-go-go-related gene (hERG) potassium channel (human, UniProt Q12809). Put plainly: primary screen, population patch clamp on CHO cells stably expressing hERG.
`COc1cc(S(=O)(=O)NCc2ccccc2Cl)ccc1-n1cnnn1`: the “hERG current change (%, negative = inhibition) at 10uM” value is on record as -18.2%.

With `O=C(CSc1nnc(-c2cccnc2)n1-c1ccccc1)Nc1ccc2c(c1)OCO2`, the “hERG current change (%, negative = inhibition) at 10uM” value is reported as -6.74%.

As to `O=C(CCNS(=O)(=O)c1cccs1)NC1CCN(Cc2ccccc2)CC1`, the “hERG current change (%, negative = inhibition) at 10uM” value is on record as 9.19%.

On to `Cc1ccc(S(=O)(=O)N2CCC(=O)N(C(COCc3ccccc3)C(C)C)CC2)cc1` (stereo not drawn), for which the “hERG current change (%, negative = inhibition) at 10uM” value is recorded as -23.2%.

`O=c1[nH]c(/C=C\c2cccc(Cl)c2)nc(O)c1[N+](=O)[O-]`: the “hERG current change (%, negative = inhibition) at 10uM” value came out at 16.4%.

Take `CC(=O)C(Cc1ccccc1)NC(=O)CN1CCN(Cc2ccccc2)CC1` (stereo not drawn): the “hERG current change (%, negative = inhibition) at 10uM” value is -5.57%.

For the molecule `COc1ccc(C(=S)N2CCN(C)CC2)cc1`, the “hERG current change (%, negative = inhibition) at 10uM” value is -22.8%.

For the molecule `COc1ccc(NC(=O)CSc2ncnc3c2nnn3-c2ccc(F)cc2)c(OC)c1`, the “hERG current change (%, negative = inhibition) at 10uM” value amounted to 4.57%.

For the molecule `CCn1ccc2cc(OC)ccc2c1=S`, the “hERG current change (%, negative = inhibition) at 10uM” value was 10.3%.

For `CC1CC(C)CN(CCCNC(=O)c2ccc(CS(=O)(=O)Cc3ccccc3F)o2)C1` (stereo not drawn), the “hERG current change (%, negative = inhibition) at 10uM” value was -42.7%.

For the molecule `Cc1ccc(NC(=O)C(OC(=O)c2ccc(C=O)cc2)c2ccccc2)cc1Cl` (stereo not drawn), the “hERG current change (%, negative = inhibition) at 10uM” value was 6.16%.

As for `Cc1cccc(N)c1-c1c(C)cccc1N`, the “hERG current change (%, negative = inhibition) at 10uM” value was 11.3%.

In the case of `O=C(N(Cc1ccccc1)c1ccccn1)C12CC3CC(CC(C3)C1)C2`, the “hERG current change (%, negative = inhibition) at 10uM” value was -17.7%.

On to `CC(NC(=O)c1cc2cc([N+](=O)[O-])ccc2oc1=O)C1CCCO1` (stereo not drawn), for which the “hERG current change (%, negative = inhibition) at 10uM” value amounted to 22.6%.

As for `Nc1nonc1-n1nnc(C(=O)N/N=C\c2ccncc2)c1CN1CCCCC1`, the “hERG current change (%, negative = inhibition) at 10uM” value is -15.8%.

Turning to `Cc1nc2ncnn2c(C)c1CCC(=O)NCCC1=CCCCC1`, the “hERG current change (%, negative = inhibition) at 10uM” value is reported as -23.7%.

Take `Cc1ccccc1NC(=O)Cc1nc(COC(=O)c2cccc(C)c2O)cs1`: the “hERG current change (%, negative = inhibition) at 10uM” value is given as -8.57%.

Take `CNC(=O)[C@@H]1CCC(=O)N1`: the “hERG current change (%, negative = inhibition) at 10uM” value came out at 10.6%.

Take `CCc1cc2c(=O)c(-c3nc4ccccc4n3C)c(C)oc2c(CN2CCN(C)CC2)c1O`: the “hERG current change (%, negative = inhibition) at 10uM” value is 14.3%.

With `CCOC(=O)c1[nH]c2ccc(Br)cc2c1NC(=O)CNC`, the “hERG current change (%, negative = inhibition) at 10uM” value is -7.67%.

For the molecule `CC(C)C(=O)Nc1cc2c(cc1C(=O)c1ccccc1)OCCO2`, the “hERG current change (%, negative = inhibition) at 10uM” value was 0.342%.

For the molecule `COc1ccc(C)cc1NC(=O)c1sc2nc(C)nc(N3CCOCC3)c2c1C`, the “hERG current change (%, negative = inhibition) at 10uM” value is listed as -17.9%.

As for `Cc1noc2ncnc(Oc3ccc4ccccc4c3)c12`, the “hERG current change (%, negative = inhibition) at 10uM” value is given as 2.47%.

For the molecule `CCCCCN(C(=O)CCC(=O)OC(C)C(=O)NC1CCCCC1)c1c(N)n(CCCC)c(=O)[nH]c1=O` (stereo not drawn), the “hERG current change (%, negative = inhibition) at 10uM” value was 16.1%.
